Results taken from the supplement of paper PMC3334620.
The full ranking holds about 33,000 sequences; the median of “E-score (-0.5 to 0.5)” is about -0.021, and the highest 2% start at about 0.32. The list shows a part of the results.

What follows are sequences tested against T1, Zap1 (UniProt P47043) (assay: PBM E-score (8-mer binding enrichment) (E-score (-0.5 to 0.5)); higher = stronger / more preferred TF binding; most listed sequences are background and not binding sites). Details: protein concentration: 200 nM; construct: GST-full length.
T1 sequence: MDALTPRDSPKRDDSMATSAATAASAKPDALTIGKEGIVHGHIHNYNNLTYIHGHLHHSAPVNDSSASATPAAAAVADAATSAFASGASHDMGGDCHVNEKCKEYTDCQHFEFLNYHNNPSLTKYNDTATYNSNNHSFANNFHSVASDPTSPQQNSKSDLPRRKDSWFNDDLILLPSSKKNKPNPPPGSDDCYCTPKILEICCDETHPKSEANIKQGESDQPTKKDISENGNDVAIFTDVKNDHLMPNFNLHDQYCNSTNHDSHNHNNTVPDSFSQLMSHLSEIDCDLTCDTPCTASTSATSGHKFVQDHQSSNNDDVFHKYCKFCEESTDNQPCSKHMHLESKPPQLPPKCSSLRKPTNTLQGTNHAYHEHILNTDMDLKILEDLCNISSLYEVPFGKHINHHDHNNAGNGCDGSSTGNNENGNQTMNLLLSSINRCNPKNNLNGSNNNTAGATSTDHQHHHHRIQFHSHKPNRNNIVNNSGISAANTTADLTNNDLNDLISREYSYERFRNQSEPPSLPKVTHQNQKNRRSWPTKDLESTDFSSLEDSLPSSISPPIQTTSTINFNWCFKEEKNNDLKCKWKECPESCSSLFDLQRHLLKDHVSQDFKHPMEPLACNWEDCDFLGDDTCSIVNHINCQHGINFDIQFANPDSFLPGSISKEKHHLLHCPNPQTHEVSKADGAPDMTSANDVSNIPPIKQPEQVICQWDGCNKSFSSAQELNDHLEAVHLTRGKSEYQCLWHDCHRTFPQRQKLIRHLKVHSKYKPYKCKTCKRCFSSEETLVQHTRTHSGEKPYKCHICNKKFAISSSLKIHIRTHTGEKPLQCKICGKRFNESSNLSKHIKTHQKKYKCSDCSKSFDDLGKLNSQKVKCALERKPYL
How it was run: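 Yeast transcription factors, full-length or as DNA-binding domains, were expressed with a GST tag using PURExpress in vitro transcription/translation. At about 100-200 nM they were applied to universal all-10-mer Agilent arrays, double-stranded by primer extension on fresh or once-stripped slides. Fluorescent anti-GST detected bound protein, and masliner normalised the scans. E-scores for ungapped eight-base words, pooled with reverse complements, came from the Universal PBM Analysis Suite.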

Which “PBM E-score” value does the source give for CTGATGAA here?
Its value is 0.0655.

How did the “PBM E-score” value turn out when TGTAATAA was run?
The value was 0.133.

With ATTCGACC as the sequence, how does the “PBM E-score” value read?
The value was 0.0544.

With CGCGTTCC as the sequence, how does the “PBM E-score” value read?
The value was -0.0832.

For CATGCCAC, which “PBM E-score” value is on record?
The value was -0.227.

Which “PBM E-score” value does the source give for AACAAGAG here?
The value was -0.0627.

CTTTCACA was tested. Which “PBM E-score” value did it give?
Its value is 0.165.

How did the “PBM E-score” value turn out when AAAATTAA was run?
Its value is 0.102.

GCGGCCTA was tested. Which “PBM E-score” value did it give?
The value was -0.0186.

For CTACTCAG, which “PBM E-score” value is on record?
Its value is -0.0932.

With CTAAGGGA as the sequence, how does the “PBM E-score” value read?
Its value is -0.0456.

How did the “PBM E-score” value turn out when TACGTGAA was run?
The value was 0.101.

With AGCGGTCC as the sequence, how does the “PBM E-score” value read?
Its value is -0.0117.

With AATGCCTG as the sequence, how does the “PBM E-score” value read?
The value was -0.208.

With TATCGCCA as the sequence, how does the “PBM E-score” value read?
The value was -0.00426.

Which “PBM E-score” value does the source give for CATCACAA here?
The value was 0.00512.

How did the “PBM E-score” value turn out when ATAAGTTC was run?
The value was 0.0418.

CCCGACGG was tested. Which “PBM E-score” value did it give?
Its value is 0.192.

For TATCGACA, which “PBM E-score” value is on record?
Its value is 0.0537.

Which “PBM E-score” value does the source give for ACAAGTCT here?
The value was -0.0566.

GAACTACA was tested. Which “PBM E-score” value did it give?
The value was 0.0148.

For GTGATCCA, which “PBM E-score” value is on record?
The value was -0.0844.

How did the “PBM E-score” value turn out when AGACATAT was run?
The value was 0.00709.

With CACTCGTC as the sequence, how does the “PBM E-score” value read?
The value was -0.17.

How did the “PBM E-score” value turn out when AAAGCCGG was run?
The value was 0.0494.

AGCGGCGC was tested. Which “PBM E-score” value did it give?
Its value is -0.173.

CGACATCA was tested. Which “PBM E-score” value did it give?
Its value is -0.0864.

Which “PBM E-score” value does the source give for GGGAGCCA here?
The value was -0.142.

Which “PBM E-score” value does the source give for AGATAGTA here?
Its value is 0.128.

With GCCCTTAA as the sequence, how does the “PBM E-score” value read?
Its value is 0.112.

Which “PBM E-score” value does the source give for GAAGGGTC here?
The value was 0.211.

With AGGTTTGG as the sequence, how does the “PBM E-score” value read?
The value was 0.0078.

With ACAAGTCC as the sequence, how does the “PBM E-score” value read?
Its value is -0.0469.

How did the “PBM E-score” value turn out when ATCTAGAT was run?
Its value is 0.246.

With CAGTGCCA as the sequence, how does the “PBM E-score” value read?
The value was -0.262.

Which “PBM E-score” value does the source give for ATCAGTCA here?
Its value is -0.0936.

ATGAACTC was tested. Which “PBM E-score” value did it give?
Its value is -0.149.

Which “PBM E-score” value does the source give for CTCTTAGC here?
The value was 0.0564.

With GAATAACA as the sequence, how does the “PBM E-score” value read?
Its value is 0.181.

With AAATTGCG as the sequence, how does the “PBM E-score” value read?
The value was 0.0122.

Which “PBM E-score” value does the source give for AATAGACA here?
Its value is -0.162.

For AGGAGAAA, which “PBM E-score” value is on record?
The value was -0.28.

Which “PBM E-score” value does the source give for CTCTATGA here?
Its value is 0.0051.

How did the “PBM E-score” value turn out when GACCACTA was run?
Its value is 0.0858.

How did the “PBM E-score” value turn out when GTGTACAA was run?
Its value is 0.14.

How did the “PBM E-score” value turn out when ACCGGAGT was run?
Its value is 0.0636.

With GGCTTTAC as the sequence, how does the “PBM E-score” value read?
Its value is -0.132.

AAGCCATA was tested. Which “PBM E-score” value did it give?
The value was -0.124.

How did the “PBM E-score” value turn out when ACGCTCCC was run?
Its value is -0.291.

How did the “PBM E-score” value turn out when GAACGGTC was run?
The value was -0.0968.

TCTTTTCA was tested. Which “PBM E-score” value did it give?
Its value is 0.0888.

AGGAAAAT was tested. Which “PBM E-score” value did it give?
Its value is 0.0468.

Which “PBM E-score” value does the source give for ATTACCAC here?
Its value is 0.243.

How did the “PBM E-score” value turn out when AATATATC was run?
The value was 0.039.

How did the “PBM E-score” value turn out when GAAGCTTA was run?
The value was -0.0597.

AACTGACA was tested. Which “PBM E-score” value did it give?
The value was 0.0328.

CTATGTAC was tested. Which “PBM E-score” value did it give?
Its value is -0.0102.

Which “PBM E-score” value does the source give for CGGCACCA here?
The value was 0.00664.

How did the “PBM E-score” value turn out when GAGACGGC was run?
The value was -0.08.

With AACTAATC as the sequence, how does the “PBM E-score” value read?
Its value is -0.0851.

For GATTAAGA, which “PBM E-score” value is on record?
The value was 0.13.

For GGATCAGA, which “PBM E-score” value is on record?
The value was -0.227.

With AATACCAA as the sequence, how does the “PBM E-score” value read?
The value was 0.0327.

How did the “PBM E-score” value turn out when GGTCGAAC was run?
Its value is 0.059.

Which “PBM E-score” value does the source give for GGTAGTAA here?
The value was 0.078.

With AAGGTCGA as the sequence, how does the “PBM E-score” value read?
The value was 0.176.

AGATTGCG was tested. Which “PBM E-score” value did it give?
Its value is 0.0227.

With GTATCTCA as the sequence, how does the “PBM E-score” value read?
Its value is 0.0772.

GCGCGCTA was tested. Which “PBM E-score” value did it give?
The value was -0.00912.

For CACCGTCA, which “PBM E-score” value is on record?
The value was -0.0649.

For AATCAGAC, which “PBM E-score” value is on record?
The value was -0.0167.

CAGAGCTG was tested. Which “PBM E-score” value did it give?
Its value is -0.158.

With CTGGGAAA as the sequence, how does the “PBM E-score” value read?
Its value is 0.0242.

For AGTCATAA, which “PBM E-score” value is on record?
Its value is -0.064.

With GGAGAAAA as the sequence, how does the “PBM E-score” value read?
The value was -0.0355.

With TCATCTAA as the sequence, how does the “PBM E-score” value read?
The value was 0.127.

For AGATGACA, which “PBM E-score” value is on record?
Its value is -0.0613.

How did the “PBM E-score” value turn out when TATCCGGA was run?
The value was 0.0937.

How did the “PBM E-score” value turn out when CCACAACG was run?
The value was 0.0128.

Which “PBM E-score” value does the source give for GCCGTAAA here?
Its value is 0.0721.

How did the “PBM E-score” value turn out when GCCATGCA was run?
The value was -0.115.

ATTCTTTA was tested. Which “PBM E-score” value did it give?
The value was 0.0765.

With CATCCACG as the sequence, how does the “PBM E-score” value read?
The value was 0.0264.

For CAATCGTG, which “PBM E-score” value is on record?
Its value is -0.131.

Which “PBM E-score” value does the source give for CCGGGGCG here?
The value was 0.0268.

For CCTAATAC, which “PBM E-score” value is on record?
Its value is 0.0529.

ACGGAACG was tested. Which “PBM E-score” value did it give?
Its value is -0.172.

How did the “PBM E-score” value turn out when ACTAGTTA was run?
Its value is 0.104.

With GTCTAGTA as the sequence, how does the “PBM E-score” value read?
The value was 0.205.

ATGGCTGC was tested. Which “PBM E-score” value did it give?
The value was -0.0665.

Which “PBM E-score” value does the source give for TCAGAAGA here?
The value was -0.157.

Which “PBM E-score” value does the source give for CTTATAAA here?
Its value is 0.0799.

How did the “PBM E-score” value turn out when CGCAAACA was run?
The value was 0.0305.

How did the “PBM E-score” value turn out when CAAATAGC was run?
Its value is -0.0959.
